Among all 48,000 compounds or so, about 1,200 (2.5%) were called active. Not shown: some 2% with an inconclusive outcome.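 Rule for the calls: active = activation of at least 60% and not above a set upper limit (about 1 call in 100 departs from these limits); inconclusive = activation of 40% to 60%, or above that upper limit; inactive = activation under 40%.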 The list shows a part of the results.
Each molecule was assayed against Probable G-protein coupled receptor 32 (Homo sapiens) (UniProt O75388) (assay: qHTS for Agonists of Human Resolvin D1 Receptor DRV1). Details: CHO-K1 GPR32 beta-arrestin PathHunter luminescence, 90 min; at 76.9 µM; active compounds read high; zero percent set by DMSO-only wells.
How it was run: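 Using DMSO wells as EC0, agonist-induced signal was taken as chemiluminescence from beta-Gal reconstituted upon beta-arrestin recruitment to GPR32 in CHO-K1 cells after 90 min compound treatment.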
Note: 0% is about no effect.

Chain of UniProt O75388 (O75388 whole entry, looked up): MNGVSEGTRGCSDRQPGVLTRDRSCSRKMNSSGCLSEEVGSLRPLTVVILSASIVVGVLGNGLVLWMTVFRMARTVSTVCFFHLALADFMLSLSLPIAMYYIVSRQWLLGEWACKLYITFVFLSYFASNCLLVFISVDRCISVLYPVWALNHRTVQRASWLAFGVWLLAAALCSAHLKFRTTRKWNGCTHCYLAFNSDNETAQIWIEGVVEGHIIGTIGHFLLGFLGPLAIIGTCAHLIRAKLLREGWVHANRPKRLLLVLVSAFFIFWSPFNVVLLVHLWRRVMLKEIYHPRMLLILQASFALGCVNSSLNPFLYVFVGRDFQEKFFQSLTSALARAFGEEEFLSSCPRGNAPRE

Row | Compound | activation
1 | Cc1c(NC(=O)Nc2ccc(F)c(Cl)c2)c(=O)n(-c2ccccc2)n1C | inactive: -8.62%
2 | Cc1nn(CCC(=O)N2CCN(c3ccccc3)CC2)c(C)c1S(=O)(=O)N1CCCC1 | inactive: -18.9%
3 | CCc1cnc2c(c1SCC(=O)N1CCC(C)CC1)c(=O)n(C)c(=O)n2C | inactive: -12.3%
4 | Cc1ccc(Cl)cc1N1CCN(C(=O)C2CCN(S(=O)(=O)c3ccc4c(c3)oc(=O)n4C)CC2)CC1 | inactive: -5.98%
5 | CC(=O)c1cccc(NC(=O)c2nc3ccccc3nc2N2CCCCC2)c1 | inactive: -28.4%
6 | O=C(Nc1ccc(F)cc1Cl)C1Cc2ccccc2N1C(=O)c1ccccc1 (stereo not given) | inactive: -11.8%
7 | O=C(CCn1nc(-c2ccc(Cl)cc2)c2ccccc2c1=O)Nc1ccc(OC(F)(F)F)cc1 | inactive: -3.77%
8 | COc1ccc(OC)c(CNC(=O)C2CCN(c3ncnc4c3nc3n4CCCCC3)CC2)c1 | inactive: -12.6%
9 | O=C(Nc1cc(F)ccc1F)c1cc2nc(-c3ccco3)cc(C(F)(F)Cl)n2n1 | inactive: 15.2%
10 | COC(=O)c1cc(S(=O)(=O)NCC2CCN(Cc3ccccc3F)CC2)c[nH]1 | inactive: 0.997%
11 | Cc1cc(C)c2c(n1)nn1c(C)c(CCC(=O)NCc3ccc(Cl)cc3)c(C)nc21 | inactive: -14.1%
12 | CN1C(=O)C2(c3ccccc31)N(c1ccc(F)c(Cl)c1)C(=O)CS2(=O)=O (stereo not given) | inactive: -24.6%
13 | Cc1ccc(C2=NN(CC(=O)NCCc3ccc(Cl)cc3)C(=O)CC2)cc1 | inactive: -27.6%
14 | CCC(=O)N1CCc2cc(S(=O)(=O)CCC(=O)N3CCN(c4ccc(C(C)=O)cc4)CC3)ccc21 | inactive: 20%
15 | CCOc1ccc(-c2cn3c(n2)sc2cc(C(=O)NCCc4ccc(OC)c(OC)c4)ccc23)cc1 | inactive: -6.13%
16 | Cc1cccc(NC(=O)N2CCC(n3c(C)nc4cccnc43)CC2)c1 | inactive: 2.04%
17 | COc1ccc(CCNC(=O)CCn2c(=O)c3cccn3c3cccnc32)c(OC)c1OC | inactive: 6.07%
18 | CCOC(=O)N1CCC(NC(=O)c2ccc3c(c2)N(Cc2cc(C)ccc2C)C(=O)c2ccccc2S3=O)CC1 (stereo not given) | inactive: -3.69%
19 | CCC(C)(C)NC(=O)Cn1c(=O)ccc2cc(S(=O)(=O)N3CCC(C)CC3)ccc21 | inactive: -11%
20 | O=C(CSc1nccn1Cc1ccccc1)Nc1ccc2c(c1)OCO2 | inactive: -9.34%
21 | CCOc1cc(C(=O)NCCc2csc(-c3ccc(C)cc3)n2)cc(OCC)c1OCC | inactive: -12.3%
22 | CN(C(=O)c1cc2c(=O)n3ccccc3nc2n1C)c1ccccc1 | inactive: -15.6%

Row | Compound | activation
23 | COc1cccc(CNC(=O)c2nn(C)c3c2CS(=O)(=O)c2ccccc2-3)c1 | inactive: -7.95%
24 | CCn1cc(C(=O)N2CCN(c3ccc(OC)cc3)CC2)c(=O)c2cc(S(=O)(=O)N(C)C3CCCCC3)ccc21 | inactive: -3.09%
25 | COc1ccc(NC(=O)CSC2=Nc3ccccc3C3=NC(CCC(=O)NCCc4ccccc4)C(=O)N23)c(OC)c1 (stereo not given) | inactive: -35.5%
26 | O=C(NCc1ccco1)c1ccc2c(c1)N(Cc1ccccc1F)C(=O)c1ccccc1S2=O (stereo not given) | inactive: -10.3%
27 | CC(=O)O[C@H]1CC[C@@]2(C)C(=CC[C@@H]3[C@@H]2CC[C@]2(C)C(C(C)=O)=CC[C@@H]32)C1 | inactive: 1.73%
28 | Cc1cccc(OC(=O)c2cc(-c3ccc(Cl)cc3)on2)c1C | inactive: 9.33%
29 | COc1cccc(NC(=O)C(CCSC)NC(=O)C2CCC(C)CC2)c1 (stereo not given) | inactive: -7.48%
30 | CC(C)CN(CCCNC(=O)c1cn(C)c2ccc(S(=O)(=O)N(C)C3CCCCC3)cc2c1=O)CC(C)C | inactive: -2.1%
31 | COc1ccc(CNC(=O)c2cc(C)nc3c2c(C)nn3-c2cccc(Cl)c2C)cc1 | inactive: -20.2%
32 | CC(=O)c1cc2ccccc2s1 | inactive: -3.7%
33 | CC(C)[C@@H]1CC[C@@H](C)CC1=O | inactive: 10.3%
34 | COc1ccc(C)cc1NC(=O)CC(=O)Nc1ccc2nc3n(c(=O)c2c1)CCCCC3 | inactive: 29.9%
35 | CCOc1ccc(S(=O)(=O)N(C(=O)c2ccncc2)c2ccc3oc(C)c(C(=O)OC)c3c2)cc1 | inactive: -2.57%
36 | CCOc1ccc(C2=CC(c3cc(Br)ccc3F)n3ncnc3N2)cc1Cl (stereo not given) | inactive: -10.6%
37 | CC(C)CSc1oc(-c2ccco2)nc1S(=O)(=O)c1ccc(Br)cc1 | inactive: -32.3%
38 | CCOc1ccc(-n2c(=O)c3c(C)c(C)sc3n(Cc3cc(=O)n4cc(Cl)ccc4n3)c2=O)cc1 | inactive: -1.3%
39 | CN(C(=O)CSc1nc2ccccc2n1Cc1cccc(C(F)(F)F)c1)c1ccccc1 | inactive: -41.7%
40 | Cc1nn(CC(=O)Nc2cccc(C(F)(F)F)c2)c(=O)c2nn(-c3ccccc3)c(C)c12 | inactive: -9.99%
41 | O=C(COC(=O)c1cc(-c2ccccc2)nc2c(Cl)cccc12)c1ccc(F)cc1 | inactive: -7.84%
42 | O=C(NCCc1csc(-c2ccc(F)cc2)n1)c1c(F)cccc1Cl | inactive: 45.4%
43 | CC(C)C(=O)Nc1cccc(C2CN3CCSC3=N2)c1 (stereo not given) | inactive: -0.533%
44 | Cc1ccc(-c2nc3ccccc3[nH]2)cc1NC(=O)COc1cccc(C)c1C | inactive: 31.6%

Row | Compound | activation
45 | COc1cc(CNc2ccc3[nH]c(=O)[nH]c3c2)cc(Cl)c1OCc1ccccc1F | inactive: 35.9%
46 | Cc1ccc(-c2nonc2NC(=O)c2ccco2)cc1C | inactive: 29.5%
47 | Cc1oc(C)c2c(=O)cc(-c3ccc4c(c3)OCO4)cc(OC(=O)c3ccc(Cl)cc3)c12 | inactive: -9.79%
48 | Cc1ccc(-c2nn(CC(=O)Nc3cccc(C(F)(F)F)c3)c(=O)c3ccccc23)cc1 | inactive: -4.12%
49 | Cc1ccc(CNC(=O)c2ccc3c(c2)N(Cc2cccc(C)c2)C(=O)CS3)cc1 | inactive: 17.2%
50 | COc1ccccc1Cn1c(CNS(=O)(=O)c2cccc([N+](=O)[O-])c2)nc2cccnc21 | inactive: -16.2%
51 | NC(CSCC(=O)O)C(=O)O (stereo not given) | inactive: -7.75%
52 | CCC(Sc1nc2ccccc2c2nc(CCc3c(C)n[nH]c3C)nn12)C(=O)Nc1ccccc1F (stereo not given) | inactive: -10.3%
53 | Cc1cccc(C)c1NC(=O)CSCc1cnn(-c2ccccc2)c1-n1cccc1 | inactive: -9.97%
54 | Cc1ccccc1C(=O)Nc1ccc(C(=O)N2CCCC(N(C)C)c3ccccc32)cc1 (stereo not given) | inactive: 3.34%
55 | COc1ccc(C)cc1NC(=O)CCn1nc(C)cc1C | inactive: -25.7%
56 | CCN(CC)C(=O)C1=C(C)Nc2nc3ccccc3n2C1c1cccc(Cl)c1 (stereo not given) | inactive: -4.23%
57 | Cc1ccc(NC(=O)Cn2c(=O)c(CNc3ccccc3)cc3cc4c(cc32)OCCO4)cc1 | inactive: -61.3%
58 | COC(=O)c1ccc(NC(=O)CSc2n[nH]c(CC(C)C)n2)cc1 | inactive: 14.8%
59 | COc1ccc(CNC(=O)c2cc3cccc(OC)c3oc2=O)cc1 | inactive: -4.85%
60 | COc1ccc(Cl)cc1NC(=O)N1CC(=O)Nc2sc3c(c2C1c1ccccc1)CCCC3 (stereo not given) | inactive: -35.3%
61 | CCCc1nccn1S(=O)(=O)c1cc(Br)ccc1OC | inactive: -8.16%
62 | Cc1ccc(NC(=O)Cn2c(-c3cncs3)nc3ccccc32)cc1Br | inactive: -10%
63 | CCN(CC)C(=O)CSc1nc2ccccc2c(=O)n1Cc1ccco1 | inactive: 8.69%
64 | Cc1nn(CCCC(=O)Nc2cccc(F)c2)c(=O)c2c1sc1ccccc12 | inactive: -10.1%
65 | COc1cc2c(C(=O)N(C)c3cc(Cl)ccc3OC)cn(CC(C)C)c(=O)c2cc1OC | inactive: 0.723%
66 | CCN(C(=O)Cn1c(=O)n(CC2CCC(C(=O)NC)CC2)c(=O)c2sccc21)c1ccccc1 (stereo not given) | inactive: -5.02%

Row | Compound | activation
67 | COc1ccc(NC(=O)CN2C(=O)CCc3cc(S(=O)(=O)N4CCOCC4)ccc32)cc1Cl | inactive: 19.7%
68 | O=C(Nc1ccccc1)c1cn(-c2ccccc2)nc1-c1ccccc1 | inactive: -18.5%
69 | COc1ccccc1NC(=O)CSC1=Nc2ccccc2N=C(c2ccc(F)cc2)C1 | inactive: -16.6%
70 | Cc1cccc(-n2c3nc(=O)[nH]c(=O)c-3cc3c(C)nn(-c4ccccc4)c32)c1C | inactive: -0.56%
71 | Cc1ccc(NC(=O)Cc2coc3c(C)c(C)ccc23)cc1Cl | inactive: 27%
72 | Cc1ccc(NC(=O)c2ccc3[nH]c(C)cc(=O)c3c2)c(C)c1 | inactive: -5.07%
73 | CN(Cc1ccc(C(C)(C)C)cc1)Cc1cccc2ccccc12 | active: 68.1%
74 | Cc1ccc(CCNC(=O)c2cc(-c3ccc(Cl)cc3)n[nH]2)cc1 | inactive: -1.89%
75 | Cc1ccc(Nc2cc(C(=O)NCc3cccs3)c3ccccc3n2)c(C)c1 | inactive: -8.13%
76 | COc1ccccc1CN1CCN(C2CCN(C(=O)NC(C)C)CC2)C(=O)C1=O | inactive: -6.51%
77 | COc1ccc(Nc2ncc3c(n2)CCN(C(=O)OC(C)(C)C)C3)cc1 | inactive: 46.7%
78 | COc1cc2ccccc2cc1C(=O)Nc1ccc2oc(-c3ccccc3)nc2c1 | inactive: 5.34%
79 | CCOc1ccccc1C(=O)N(Cc1cccs1)c1ccc(Cl)cc1 | inactive: -0.748%
80 | CCc1ccc2c(c1)-c1ccccc1S(=O)(=O)N2CC(=O)N1CCC(C)CC1 | inactive: -38.7%
81 | NCCCCN | inactive: -1.09%
82 | Cc1cc(O)c(-c2ccnc3cc(-c4ccccc4)nn23)cc1Cl | active: 89.7%
83 | Cc1ccccc1CNC(=O)CCC(=O)N1CC2CCCN2c2ccccc21 (stereo not given) | inactive: 12.5%
84 | COc1ccccc1C(=O)Nc1nc2nc(C)c(Cc3ccccc3)c(=O)n2[nH]1 | inactive: 1.29%
85 | COc1ccccc1CNc1ncnc2c1c(-c1ccccc1)cn2-c1cccc(C)c1 | inactive: -40.4%
